Consider 48 molecules from PubChem BioAssay AID1508623 (National Center for Advancing Translational Sciences (NCATS), 2021).

Screen size: about 48,000 compounds; about 450 (0.94%) were called active. Another 19% or so got no clear call; they are omitted. Calls come from the whole dose curve; as a rule, active = well fitted inhibition curve with a large enough effect; inconclusive = small, poorly fitted or top-dose-only effect; inactive = no such curve, though single readings can be large or run the other way. Some of the results follow.

This experiment can be described thus: Primary qHTS for Identification of Small Molecule Inhibitors of Huntingtin Promoter Activity. Note: nearly all actives have a fitted effect of over 50% in size. Conditions: HEK293 HTT promoter firefly luciferase reporter (activity 0% = vehicle and -100% = no light), 24 h; series mostly up to 57.5 µM; activity change, negative = inhibition: at the top concentration. The method, boiled down: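 Firefly luciferase signal from promoter-reporter HEK293 cells was scaled between vehicle (0%) and zero RLU (-100%). Compounds were tested at final concentrations of up to 57.5 uM over 24 h at 37 degrees C. PTC124 at 50 uM final served as control inhibitor.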
Regarding `CCCCCNC(=O)C1CCC(Cn2c(=O)c3sccc3n(CC(=O)NCc3cccc(OC)c3OC)c2=O)CC1` (stereo not drawn), the “activity change, negative = inhibition” value is inactive: -15.5%.
As for `CCCCC(=O)Nc1nnc(S(=O)(=O)N(C)Cc2ccccc2)s1`, the figure is inactive: -13.4%; as for `CCSc1nnc2c(n1)OC(c1ccc(OC)c(OC)c1)N(C(C)=O)c1ccccc1-2` (stereo not drawn), inactive: -16.4%; as for `Cc1cccc(N(C)S(=O)(=O)c2cc3[nH]c(=O)c(=O)[nH]c3cc2C)c1`, inactive: 0.117%.
The entry for `NS(=O)(=O)c1cc2c(cc1Cl)NCNS2(=O)=O` is “inactive”; for `COc1ccc(Cl)cc1NC(=O)CSc1ccc2nnc(CCNS(=O)(=O)c3ccccc3)n2n1` it is inactive: -13%.
As for `CCOc1ccc(S(=O)(=O)Nc2ccc3oc4c(c3c2)CC(C)CC4)cc1` (stereo not drawn), the figure is inactive: -17.6%; as for `COc1ccccc1CNC(=O)COCc1cc(-c2ccc3c(c2)OCO3)on1`, inactive: -19.9%.
In the case of `COc1ccc(/C=C(\C#N)c2nc3ccccc3c(=O)[nH]2)cc1OC`, the “activity change, negative = inhibition” value was inactive: -21%.
As for `O=C(COc1ccc(F)cc1)OCc1cc(=O)n2nc(-c3cccs3)sc2n1`, the “activity change, negative = inhibition” value was inactive: -18.3%.
For the molecule `COc1cccc(CNS(=O)(=O)c2c(C(=O)N3CCC(C)CC3)c(C)n(C)c2C)c1`, the “activity change, negative = inhibition” value was inactive: -20%.
Turning to `COc1cc(NS(=O)(=O)c2c(C)nc3sc(C)c(C)n3c2=O)cc(OC)c1`, the “activity change, negative = inhibition” value is inactive: -14.1%.
As for `CCOc1ccccc1CNC(=O)Cn1nc(N2CCN(c3ccccc3)CC2)ccc1=O`, the figure is inactive: 3.13%; as for `COc1ccc(C)c2sc(NC(=O)c3ccc(S(=O)(=O)N4CCCC4)cc3)nc12`, inactive: -2.07%; as for `NC(N)=N/N=C/c1c(Cl)cccc1Cl`, inactive: -2.87%.
As for `Cn1nnnc1SCCCNCc1cccc(OCc2ccccc2)c1`, the figure is inactive: -14.6%; as for `O=C(NCc1ccc(Cl)cc1)NC1COc2ccccc2C1` (stereo not drawn), inactive: -1.4%.
`CC1CCN(S(=O)(=O)c2ccc3c(c2)N(CC(=O)NCC(C)c2ccccc2)C(=O)CO3)CC1` (stereo not drawn): the “activity change, negative = inhibition” value was inactive: -15.7%.
The figure for `Cc1c(C(=O)OCc2ccccc2)[nH]c2c1C(=O)CC(c1ccc(Cl)cc1)C2` (stereo not drawn) is inactive: -18.7%; for `O=C(NCc1ccco1)c1ccc(Cn2c(SCc3ccccc3F)nc3cccnc32)cc1` it is inactive: -24.1%.
As for `CN(C)CCC=C1c2ccccc2C=Cc2ccccc21`, the entry is “inactive”; as for `O=C1c2cccc(O)c2C(=O)c2c(O)cc(CO)cc21`, inactive: 12.6%; as for `CCN1CCN(c2ncnc3c2cnn3-c2cccc(C)c2)CC1`, inactive: 62.2%.
For `O=C(CSc1ncccc1C(=O)Oc1ccccc1Cl)Nc1ccccc1Cl`, the “activity change, negative = inhibition” value is inactive: 6.65%.
The figure for `CN(C)c1ccc(CNC(=O)C2COc3ccccc3C2)cc1` (stereo not drawn) is inactive: 46%; for `O=C(NC1CCCCC1)c1ccc2c(c1)N(Cc1ccccc1Cl)C(=O)c1ccccc1S2` it is inactive: -2.2%; for `CN(C)CCc1c[nH]c2ccc(C[C@H]3COC(=O)N3)cc12` it is “inactive”.
The figure for `COc1ccc(CCNC(=O)Cn2cc(S(=O)(=O)Cc3ccc(F)cc3)c3ccccc32)cc1OC` is inactive: -24%.
Take `CCOc1ccc(C(=O)c2oc3ccccc3c2NC(=O)c2cc(-c3ccc(C)cc3)on2)cc1`: the “activity change, negative = inhibition” value is inactive: -3.55%.
As for `Cc1ccc(-c2cc(C(F)(F)F)n3ncc(-c4ccccc4)c3n2)cc1`, the figure is inactive: -4.01%; as for `O=C(Nc1cccc(F)c1)c1oc2ccccc2c1NC(=O)C12CC3CC(CC(C3)C1)C2`, inactive: -12.9%; as for `O=S(=O)(c1ccccc1)c1nnn2c1nc(NCc1ccccc1)c1cc(Cl)ccc12`, inactive: -11.4%.
The figure for `CC(C)c1ccc(NC(=O)CCS(=O)(=O)c2ccc3c(c2)CC(=O)N3C)cc1` is inactive: -1.98%; for `Cc1nc2nc(C)c(CCC(=O)NCc3ccccc3)c(C)n2n1` it is inactive: -11.6%.
For the molecule `COc1cccc(Cc2nc3ccccc3nc2SCC(=O)Nc2cc(OC)ccc2OC)c1`, the “activity change, negative = inhibition” value is inactive: -17%.
As for `CCOc1ccccc1CNCCSc1nnnn1C`, the “activity change, negative = inhibition” value was inactive: -7.99%.
The figure for `CCOc1cc(-c2ccc(OC(=O)c3ccccc3)c(OC)c2)cc(=O)c2c(C)oc(C)c12` is inactive: -1.87%; for `Cc1ccc(C2c3c(oc4ccccc4c3=O)C(=O)N2c2nnc(C)s2)cc1` (stereo not drawn) it is inactive: -10.8%; for `O=c1c2sc3ccccc3c2n(Cc2ccccc2)c(=O)n1CCc1ccccc1` it is inactive: -2.03%.
On to `COc1ccc(C)cc1Nc1ncnc2c1c(-c1ccccc1)cn2-c1ccc(C)cc1`, for which the “activity change, negative = inhibition” value was inactive: -24.6%.
For the molecule `O=c1[nH]c(=O)n([C@H]2C[C@H](O)[C@@H](CO)O2)cc1F`, the “activity change, negative = inhibition” value is inactive: -18.5%.
The figure for `COc1ccc(OC)c2sc(N3CCN(C(=O)C4COc5ccccc5O4)CC3)nc12` (stereo not drawn) is inactive: 0.0158%; for `Cc1ccc(S(=O)(=O)C(CNC(=O)COc2ccccc2)c2ccco2)cc1` (stereo not drawn) it is inactive: -27.3%; for `CCCN(CCC)C(=O)Cn1c(=O)n(CCCCCC(=O)NCc2ccccc2Cl)c(=O)c2sccc21` it is inactive: -6.68%.
On to `CC(C)CCNC(=O)C(Cc1ccccc1)NS(=O)(=O)c1ccc2c(c1)c(=O)n(C)c(=O)n2C` (stereo not drawn), for which the “activity change, negative = inhibition” value was inactive: -18%.
The figure for `Cc1cc(C)n(-c2nc3cc(Cl)ccc3nc2N2CCN(c3ccccc3F)CC2)n1` is inactive: -28%.
The figure for `Cc1ccc(CNC(=O)CSc2nc3n[nH]c(C)c3c(=N)n2-c2ccccc2Cl)cc1` is inactive: -2.98%; for `O=C(Nc1ccccc1C(=O)OCc1cc(=O)n2nc(C3CC3)sc2n1)c1cccc(F)c1` it is inactive: -2.21%.
